PubChem BioAssay AID1508624 (National Center for Advancing Translational Sciences (NCATS), 2021)
Hit rate of the full screen: of about 48,000 compounds, about 120 (0.25%) were called active. Not shown: some 4% with an inconclusive outcome. Calls follow the shape of the dose curve; as a rule, active = well fitted activation curve with a large enough effect; inconclusive = small, poorly fitted or top-dose-only effect, or another doubt; inactive = no such curve, though single readings can be large or run the other way. This is one part of the list.

Assay: Primary qHTS for Identification of Small Molecule Activators of Huntingtin-Antisense Promoter Activity; also: nearly all actives have a fitted effect of over 55% in size
Details: HEK293 HTT-AS promoter firefly luciferase reporter, 24 h; series mostly up to 57.5 µM; activity change, positive = activation: at the top concentration
Outline: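 Quantitative HTS used concentration series of up to 57.5 uM final on HEK293 luciferase reporter cells, 24 h at 37 degrees C. Readout was Dual-Glo firefly luminescence.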

Activity change, positive = activation, inactive:
Cc1nn(CCCC(=O)Nc2ccccc2C(F)(F)F)c(=O)c2c1sc1ccccc12 3.02%
COc1cccc(NC(=O)Nc2cc(-c3cn4cccnc4n3)ccc2C)c1 -23.8%
CCC(Sc1nnc(C)n2c1cc1occc12)C(=O)Nc1ccccc1F (centres undefined) -32.4%
O=C(NCCO)C(=O)Nc1c2c(nn1-c1ccc(F)cc1)CSC2 -5.7%
C[C@]12CCC(=O)C=C1CC[C@@H]1[C@@H]2[C@@H](O)C[C@@]2(C)[C@H]1CC[C@]2(O)C(=O)COC(=O)CCC(=O)O -6.9%
Cc1cccc(N2CCN(S(=O)(=O)c3ccc4c(c3)CCCN4C(=O)C3CCC3)CC2)c1C -16.2%
COc1ccccc1N1CCN(C(=O)Cn2ncc3c(=O)oc4ccccc4c32)CC1 -0.617%
O=C(Nc1cccc(Cl)c1)c1c(NC(=O)C(F)(F)F)sc2c1CCCC2 -94.1%
CC(=O)Nc1cccc(NC(=O)Cn2cnc3c2c(=O)n(C)c(=O)n3C)c1 -11.8%
Cc1nc(N2CCCC2)c2c(C(=O)Nc3cccc(C)c3C)c(C)oc2n1 -19.5%
CCN(CC)c1ccc(NC(=O)C(Cc2ccccc2)NS(=O)(=O)c2ccc(Br)s2)c(C)c1 (centres undefined) -14.1%
COc1ccc(CCNCc2c(C(=O)O)c(C)n(Cc3ccccc3C)c2C)c(OC)c1 -11.6%
COc1ccc(S(=O)(=O)N(CC(=O)NCc2ccccc2OC)c2ccc(C)cc2)cc1 -34.4%
CCOc1ccccc1N(C)C(=O)Cn1cnc2sc(C)c(S(=O)(=O)N3CCC(C)CC3)c2c1=O -11.1%
COc1cc(OC)c(NC(=O)COCc2cc(-c3cccs3)on2)cc1Cl -14.1%
CC(C)(C)NC[C@H](O)COc1nsnc1N1CCOCC1 -8.5%
CCOCCOC(=O)c1ccc(NC(=O)/C=C/c2ccc(OC)c(OC)c2)cc1 6.41% [at 11.5 µM, percent change from vehicle, -100% = no light]
O=C(CSc1ncc2c(n1)-c1ccccc1N(Cc1ccc(F)cc1)S2(=O)=O)c1ccc(Cl)cc1 16.2%
CCc1cc2c(cc3c(=O)n(CC(=O)N4CCN(c5cc(Cl)ccc5C)CC4)ncn32)s1 -5.04%
Cc1ccc(S(=O)(=O)c2cn(C)c3cc(N4CCN(C)CC4)c(F)cc3c2=O)cc1 -5.91%
Cc1cccc(C)c1-n1ncc(C(=O)Nc2ccc3c(c2)OCCO3)c1C1CCN(C(=O)OC(C)(C)C)CC1 -41.7%
COc1ccc(Nc2c(-c3cc(Br)ccc3O)nc3ncccn23)cc1OC -25.6%
COc1ccccc1N1CCN(S(=O)(=O)c2c(C)sc3ncn(CC(=O)N(C)c4ccc(C(C)C)cc4)c(=O)c23)CC1 -7.99%
CNS(=O)(=O)c1ccc(OC)c(-c2nnc3c4ccccc4c(C)nn23)c1 -7.4%
